Measurements published in PubChem BioAssay (NCATS).
Where “and” joins values, the source holds several entries; their conditions need not be identical. Identical values can stand only once. The list shows a part of the results. Shown are side measurements of this screen, not its main read-out; they come without a call. Most of these compounds were active or inconclusive in the main read-out, so they are no random draw. For part of these data: Potencies come from curve fits of mixed quality, noted in brackets.

Legend:
[1] = qHTS Assay for Lipid Storage Modulators (AID 1519); details: Drosophila S3 cells, BODIPY lipid droplet/cell ratio, laser cytometry, cells loaded with oleic acid
In short: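 Cells seeded at 5,000 per well were treated with compounds over a concentration series and loaded with oleic acid (400 uM, as added). Lipid droplet fluorescence (488 nm excitation, 500-530 nm channel) was read by laser-scanning cytometry and normalized to 20 uM Triacsin C.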

[2] = qHTS Assay for Modulators of Human Peripheral Myelin Protein 22 (PMP22) Expression/Activity (AID 1967); details: Cell-based PMP22 reporter, dual-color luciferase ratio
In short: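 Readout is the corrected green/red luminescence ratio after 24 h compound exposure, normalised to untreated cells (0%). Engineered MSC80 mouse Schwann cells express green luciferase from the mouse Pmp22 promoter and red luciferase from EF-alpha as internal control.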

[3] = qHTS assay for small molecule antagonists of peroxisome proliferator-activated receptor gamma signaling (AID 588537); details: HEK293 PPARg-UAS-bla, beta-lactamase ratio, antagonist mode; measured here: W460 blue channel
In short: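 Antagonist-mode β-lactamase reporter screen run as a titration series. HEK293 PPARγ-UAS-bla cells are stimulated with rosiglitazone (50 nM final) for 16 h, then CCF4 is read at 460/530 nm. Data are scaled between DMSO and rosiglitazone and fitted to the Hill equation.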

[4] = qHTS assay for small molecule antagonists of peroxisome proliferator-activated receptor delta signaling (AID 588535); details: HEK293T PPARd-UAS-bla, beta-lactamase FRET ratio, 18 h; 460 nm channel;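 further: cells co-treated with a PPAR-delta agonist as stimulator during compound exposure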
In short: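 Titrations were run on PPAR-delta-UAS-bla HEK293T cells in charcoal/dextran-stripped serum, incubated 18 h at 37 C. CCF4 fluorescence (460/530 nm) after 2 h RT; Hill equation yields IC50 and maximal response.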

[5] = qHTS Assay for Inhibitors of PDE-IV (AID 607); details: HEK293 ACTOne CNG channel cells, membrane potential fluorescence; measured here: parental cell counter-screen;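 further: parental cells stimulated with forskolin 10 µM plus RO 20-1724 100 µM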
In short: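 ACTOne HEK293 cells carry a modified cAMP-gated CNG channel and express endogenous PDE4; plated 1000 cells/well, compounds up to 22.9 uM final. Membrane-potential dye fluorescence (ex 535/em 590) was read; parental cells received 10 uM forskolin + 100 uM RO 20-1724.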

[6] = qHTS assay for small molecule antagonists of androgen receptor signaling (AID 588516); details: AR-UAS-bla HEK293, beta-lactamase ratio, antagonist mode, 16 h; measured here: W460 blue channel fit
In short: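 Cells were plated and incubated 5 h, compounds added in titration, then R1881 (10 nM final) as agonist. After 16 h at 37 C, CCF4 substrate was loaded for 2 h at room temperature and fluorescence measured.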

[7] = qHTS assay for small molecule agonists of retinoid X receptor alpha signaling (AID 588544); details: HEK293T RXRa-UAS-bla, beta-lactamase reporter, 18 h; 530 nm emission
[8] = qHTS assay for small molecule antagonists of retinoid X receptor alpha signaling (AID 588546); details: HEK293T RXRa-UAS-bla, beta-lactamase ratio, antagonist mode; measured here: W530 green channel, cytotoxicity proxy;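 further: cells stimulated with 9-cis-retinoic acid as agonist; on the % scale 0 is the no-effect control and ±100 the full control effect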
In short: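 Beta-lactamase reporter inhibition, read as CCF4 fluorescence ratio (ex 405, em 460/530 nm) after 2 h at RT. HEK293T UAS-bla cells, 2500/well, were stimulated with 9-cis-RA at 500 or 100 nM final alongside test compound for 18 h at 37 C.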

[9] = qHTS Validation Assay to Find Inhibitors of Chronic Active B-Cell Receptor Signaling (AID 485345); details: ABC-DLBCL cells, chronic BCR signaling reporter; measured here: CBR control luciferase (viability counter)
In short: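 Read-out: ratio of filter-corrected green (IkappaBalpha fusion) to red (native) luciferase signal in doxycycline-induced TMD8 cells after 4 h at 37C. Titration spanned 46 uM–3 nM; Data were normalised to basal cells and 10 uM MG-132 wells.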

[10] = measured here: cell count channel max response
[11] = measured here: cell number channel AC50
[12] = measured here: lipid (BODIPY) channel AC50
[13] = measured here: lipid channel max response
[14] = measured here: red reporter channel AC50, EF-alpha promoter control reporter in MSC80 mouse Schwann cells
Tags describe the fitted curve by direction and shape.

| Structure (SMILES) | max response [1, 10] | AC50 [1, 11] | AC50 [1, 12] | max response [1, 13] | AC50 [2, 14] | AC50 [3] | max response [4] [%] | AC50 [5] | AC50 [6] | max response [7] [%] | max response [8] [%] | AC50 [9] | AC50 ([2]; measured here: green reporter channel AC50, mouse Pmp22 promoter in mouse Schwann cells) |
| --- | --- | --- | --- | --- | --- | --- | --- | --- | --- | --- | --- | --- | --- |
| NS(=O)(=O)c1cc2c(cc1Cl)NCNS2(=O)=O | 53.7% | 15.8 µM [falling, single point] | 15.8 µM [falling, single point] | 54% | 95.3 µM [falling, single point] | 89.1 µM [rising, single point] |  |  |  |  |  |  |  |
| NC(=O)N1c2ccccc2C=Cc2ccccc21 | 27.8% and 48.8% | 35.5 µM [rising, single point] | 39.8 µM [rising, single point] and 35.5 µM [rising, single point] | 56.4% and 48.6% |  |  | 1.39 |  |  |  |  |  |  |
| CC(=O)Oc1ccc(C(c2ccc(OC(C)=O)cc2)c2ccccn2)cc1 | 33.4% | 0.794 µM [rising, full curve] | 28.2 µM [rising, partial curve] | 50.3% |  | 17.8 µM [rising, partial curve, poor fit] | 84 | 5.01 µM [rising, partial curve] | 35.5 nM [falling, full curve, poor fit] | 39.6 | 37.3 |  |  |
| O=C1Cc2c([nH]c3ccc(Br)cc23)-c2ccccc2N1 | 67.8% and -62.9% | 1.41 µM [rising, full curve] and 31.6 µM [falling, partial curve, poor fit] | 1.26 µM [rising, full curve] and 3.55 µM [falling, full curve, poor fit] | 76.3% and -68.3% | 0.135 µM [rising, full curve, poor fit] |  |  |  |  |  |  | 2.91 µM [falling, single point] |  |
| Nc1ncnc2c1ncn2[C@@H]1O[C@H](CO)[C@@H](O)[C@H]1O | 57.4% | 31.6 µM [rising, partial curve, poor fit] | 28.2 µM [rising, partial curve, poor fit] | 72.3% |  |  |  |  |  |  |  | 7.31 µM [rising, partial curve] |  |
| CC[C@H](NC(=O)c1c(C)c(-c2ccccc2)nc2ccccc12)c1ccccc1 | 94.7% and -7.09% | 8.91 µM [rising, partial curve] | 11.2 µM [rising, partial curve] | 120% and -9.02% | 67.5 µM [falling, partial curve, poor fit] |  |  | 15.8 µM [rising, partial curve] and 10 µM [rising, partial curve] |  |  |  |  | 60.1 µM [falling, partial curve, poor fit] |
